Laboratory results as given in US10017827B2, “Herbicide-resistant sunflower plants with multiple herbicide resistant alleles of AHASL1 and methods of use” (BASF AGROCHEMICAL PRODUCTS B.V., priority 2007, dated 2018).
Where two headings read alike, the source gives them in different places.

Columns and labels:
[1] = test system: AHAS enzyme, A122T homozygous hybrid (cmsGM40 × R733); conditions: Set 1
[2] = test system: AHAS enzyme, A122T homozygous (GM40); conditions: Set 2
[3] = test system: AHAS enzyme, A122T heterozygous hybrid (cmsBTK47 × R731); conditions: Set 2

| SMILES | AHAS activity, % of untreated control ([1]; 100 μM imazamox) [%] | AHAS activity, % of untreated control ([2]; 50 μM imazamox) [%] | AHAS activity, % of untreated control ([2]; 100 μM imazamox) [%] | AHAS activity, % of untreated control ([3]; 50 μM imazamox) [%] | AHAS activity, % of untreated control ([3]; 100 μM imazamox) [%] | AHAS activity, % of untreated control ([1]; 100 μM imazapyr) [%] |
| --- | --- | --- | --- | --- | --- | --- |
| COCc1cnc(C2=NC(C)(C(C)C)C(=O)N2)c(C(=O)O)c1 (stereo not drawn) [imazamox] | 69 | 63 | 60 | 30 | 30 | – |
| CC(C)C1(C)N=C(c2ncccc2C(=O)O)NC1=O (stereo not drawn) [imazapyr] | – | – | – | – | – | 64 |
